Binding data for seven molecules are collected here from article PMC10997794, “Seeding the meiotic DNA break machinery and initiating recombination on chromosome axes” (Nature Communications, 2024).

Test [1] deals with T1, HORMAD1, yeast two-hybrid fusion (mouse) (UniProt Q9D5T7).
T1 sequence: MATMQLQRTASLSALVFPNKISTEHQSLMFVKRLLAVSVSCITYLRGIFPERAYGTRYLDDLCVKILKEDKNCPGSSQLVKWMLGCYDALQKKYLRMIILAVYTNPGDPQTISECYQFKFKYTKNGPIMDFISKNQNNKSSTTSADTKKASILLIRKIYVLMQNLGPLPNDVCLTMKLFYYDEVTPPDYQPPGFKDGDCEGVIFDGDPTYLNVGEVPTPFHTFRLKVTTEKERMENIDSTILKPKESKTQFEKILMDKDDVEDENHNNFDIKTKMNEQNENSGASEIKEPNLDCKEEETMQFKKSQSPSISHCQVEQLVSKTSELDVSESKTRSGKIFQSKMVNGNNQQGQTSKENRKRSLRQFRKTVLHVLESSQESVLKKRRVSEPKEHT
Nature of the test: two-hybrid; mouse proteins as bait and prey co-transformed into Y2HGold yeast; growth on -Leu -Trp -Ade -His plates for 2-7 days.

For test [2], the target named is T2, IHO1, endogenous wild type in mouse testis extracts (mouse (endogenous in testis)) (UniProt Q6PDM4).
T2 sequence: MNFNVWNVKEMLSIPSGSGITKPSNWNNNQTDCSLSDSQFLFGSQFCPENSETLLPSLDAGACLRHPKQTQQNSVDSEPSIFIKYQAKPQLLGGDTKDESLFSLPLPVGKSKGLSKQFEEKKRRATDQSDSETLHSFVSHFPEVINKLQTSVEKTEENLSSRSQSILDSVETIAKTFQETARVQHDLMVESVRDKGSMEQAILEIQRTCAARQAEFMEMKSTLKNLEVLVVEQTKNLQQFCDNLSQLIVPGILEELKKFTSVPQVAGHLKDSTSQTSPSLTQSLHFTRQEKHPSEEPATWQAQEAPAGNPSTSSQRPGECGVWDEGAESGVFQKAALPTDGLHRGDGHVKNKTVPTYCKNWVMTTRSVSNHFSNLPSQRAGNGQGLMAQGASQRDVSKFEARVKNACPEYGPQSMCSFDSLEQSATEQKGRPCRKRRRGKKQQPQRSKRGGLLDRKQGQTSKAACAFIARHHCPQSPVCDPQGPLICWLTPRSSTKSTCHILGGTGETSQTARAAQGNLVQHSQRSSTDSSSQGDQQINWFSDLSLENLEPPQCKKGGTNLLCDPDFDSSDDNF
Nature of the test: co-IP; anti-IHO1 or anti-HORMAD1 antibodies cross-linked to Protein A Dynabeads; benzonase-treated total testis lysates of 13 dpp wild-type or Iho1^C7Δ/C7Δ mice; 500 mM NaCl, 1% Triton X-100, 1% NP40, 0.5% NaDOC; overnight at 4 °C; immunoblot. For orientation: A western blot detects proteins with antibodies after separation by electrophoresis.

In test [3] the target is T3, IHO1_C7Δ, endogenous in testis extracts of Iho1^C7Δ/C7Δ mice (mouse (endogenous in testis)) (UniProt Q6PDM4).
T3 sequence: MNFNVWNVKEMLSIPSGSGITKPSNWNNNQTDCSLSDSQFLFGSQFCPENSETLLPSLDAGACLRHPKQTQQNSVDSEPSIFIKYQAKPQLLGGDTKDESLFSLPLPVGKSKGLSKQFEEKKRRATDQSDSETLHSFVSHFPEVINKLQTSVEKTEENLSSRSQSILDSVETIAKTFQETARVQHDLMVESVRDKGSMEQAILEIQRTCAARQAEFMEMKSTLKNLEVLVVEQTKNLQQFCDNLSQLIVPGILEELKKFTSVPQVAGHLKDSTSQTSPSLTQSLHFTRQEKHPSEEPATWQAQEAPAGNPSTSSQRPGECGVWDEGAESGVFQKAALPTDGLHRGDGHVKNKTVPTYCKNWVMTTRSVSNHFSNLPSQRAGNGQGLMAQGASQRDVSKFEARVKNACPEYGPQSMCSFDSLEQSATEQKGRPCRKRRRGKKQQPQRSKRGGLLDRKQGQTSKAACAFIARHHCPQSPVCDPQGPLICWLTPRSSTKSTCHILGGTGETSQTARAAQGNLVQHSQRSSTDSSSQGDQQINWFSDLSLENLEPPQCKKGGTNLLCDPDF
Described as above.

Test [4] deals with T4, DBF4, yeast two-hybrid fusion (mouse) (UniProt Q9QZ41).
T4 sequence: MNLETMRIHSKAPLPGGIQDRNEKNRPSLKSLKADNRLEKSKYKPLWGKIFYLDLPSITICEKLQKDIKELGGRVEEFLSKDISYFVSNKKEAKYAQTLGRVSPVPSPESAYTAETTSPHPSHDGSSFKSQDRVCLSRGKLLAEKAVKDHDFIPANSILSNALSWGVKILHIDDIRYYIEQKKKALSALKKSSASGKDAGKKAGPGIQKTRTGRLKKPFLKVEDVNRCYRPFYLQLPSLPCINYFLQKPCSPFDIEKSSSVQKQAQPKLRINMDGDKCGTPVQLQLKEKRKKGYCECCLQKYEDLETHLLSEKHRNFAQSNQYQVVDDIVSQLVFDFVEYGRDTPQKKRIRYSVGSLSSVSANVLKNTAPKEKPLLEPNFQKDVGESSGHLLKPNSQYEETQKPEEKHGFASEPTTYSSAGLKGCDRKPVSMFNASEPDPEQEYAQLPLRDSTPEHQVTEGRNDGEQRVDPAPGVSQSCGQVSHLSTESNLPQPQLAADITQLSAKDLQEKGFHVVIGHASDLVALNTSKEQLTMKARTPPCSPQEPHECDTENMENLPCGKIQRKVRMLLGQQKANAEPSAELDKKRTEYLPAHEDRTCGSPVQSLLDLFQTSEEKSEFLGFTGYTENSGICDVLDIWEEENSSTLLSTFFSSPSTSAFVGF
The experiment in a line: two-hybrid; mouse proteins as bait and prey co-transformed into Y2HGold yeast; growth on -Leu -Trp -Ade -His plates for 2-7 days.

Residue numbers refer to the chain shown, from its start. Names may count otherwise. No constants are given. Whether binding was seen depends on the method and setting. For part of these data: Binding seen in cells or lysates may run through a third protein. Some entries that bind do so weakly or less than the wild type. For part of these data: Where a sequence is shown, tags or fusion partners need not be part of it.

B1: IHO1 without the first 358 amino acids, yeast two-hybrid fusion (domain or fragment, UniProt Q6PDM4 359-574)
chain: KNWVMTTRSVSNHFSNLPSQRAGNGQGLMAQGASQRDVSKFEARVKNACPEYGPQSMCSFDSLEQSATEQKGRPCRKRRRGKKQQPQRSKRGGLLDRKQGQTSKAACAFIARHHCPQSPVCDPQGPLICWLTPRSSTKSTCHILGGTGETSQTARAAQGNLVQHSQRSSTDSSSQGDQQINWFSDLSLENLEPPQCKKGGTNLLCDPDFDSSDDNF
Take B1: the binding entry in test [1] is “binds”.

B2: REC114, endogenous in mouse testis extracts (protein, UniProt Q9CWH4 1-259)
chain: MSEAGNVASGLGLPGEVSQWSLKRYGRFMLLDNVGSPGPSSEAAAAGSPTWKVFESSEESGSLVLTIVVSGHFFISQGQTLLEGFSLIGSKNWLKIVRRMDCLLFGTTIKNKSRMFRVQFSGESKEEALERCCGCVQTLAQYVTVQEPDSTTQELQQSQGPREAGESQGKDPLQQGPSLTLEQHVCMAAGAGVLQERTSVTHRAQSILAPEKLTLAYEGSSWGTEELGPFLRLCLMDQNFPAFVEEVEKELKKITGLRN
As for B2, the binding result in test [2] and in test [3] was “binds” each time.

B3: IHO1, wild type (1-574), yeast two-hybrid fusion (protein, UniProt Q6PDM4 1-574)
chain: T2 sequence
On to B3, for which the binding entry in test [4] and in test [1] was “binds” in each case.

B4: IHO1 S476A T490A, yeast two-hybrid fusion (protein, UniProt Q6PDM4 1-574)
chain: T2 sequence with S476A, T490A
As for B4, in test [1], the binding result is “binds”.

B5: IHO1 S569A S570A, yeast two-hybrid fusion (protein, UniProt Q6PDM4 1-574)
chain: T2 sequence with S569A, S570A
As for B5, the binding result in test [1] is reported as “no binding”.

B6: IHO1, first 358 amino acids, yeast two-hybrid fusion (domain or fragment, UniProt Q6PDM4 1-358)
chain: MNFNVWNVKEMLSIPSGSGITKPSNWNNNQTDCSLSDSQFLFGSQFCPENSETLLPSLDAGACLRHPKQTQQNSVDSEPSIFIKYQAKPQLLGGDTKDESLFSLPLPVGKSKGLSKQFEEKKRRATDQSDSETLHSFVSHFPEVINKLQTSVEKTEENLSSRSQSILDSVETIAKTFQETARVQHDLMVESVRDKGSMEQAILEIQRTCAARQAEFMEMKSTLKNLEVLVVEQTKNLQQFCDNLSQLIVPGILEELKKFTSVPQVAGHLKDSTSQTSPSLTQSLHFTRQEKHPSEEPATWQAQEAPAGNPSTSSQRPGECGVWDEGAESGVFQKAALPTDGLHRGDGHVKNKTVPTYC
With B6, the binding result in test [1] is given as “no binding”.

B7: SYCP3, endogenous in mouse testis extracts (protein, UniProt P70281 1-254)
chain: MLRGCGDSDSSPEPLSKHLKMVPGGRKHSGKSGKPPLVDQPKKAFDFEKDDKDLSGSEEDVADEKAPVIDKHGKKRSAGIIEDVGGEVQNMLEKFGADINKALLAKRKRIEMYTKASFKASNQKIEQIWKTQQEEIQKLNNEYSQQFMNVLQQWELDIQKFEEQGEKLSNLFRQQQKIFQQSRIVQSQRMFAMKQIHEQFIKSLEDVEKNNDNLFTGTQSELKKEMAMLQKKVMMETQQQEMANVRKSLQSMLF
As to B7, the binding entry in test [3] is “no binding”.
